The labels stand for the following.
T1: RBFOX1 RRM (Homo sapiens, UniProt Q9NWB1 109-208)
T1 sequence: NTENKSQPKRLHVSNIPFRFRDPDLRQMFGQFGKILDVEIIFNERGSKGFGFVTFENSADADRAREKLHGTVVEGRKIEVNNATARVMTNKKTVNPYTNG

B1: AGCACCA (DNA:RNA)
RNA: GGGAGACCGGAAUUCAGAUUGUCCAGCACCAUUAAAUCCCGUCGUAGCCACCA
DNA 1: CAATCTGAATTCCGGTCTCCC
DNA 2: TGGTGGCTACGACGGGATT
B2: GCCGGCA (DNA:RNA)
RNA: B1 RNA with A25G, G26C, A28G, C29G
DNA 1: CAATCTGAATTCCGGTCTCCC
DNA 2: TGGTGGCTACGACGGGATT
B3: CCGUAUG (DNA:RNA)
RNA: GGGAGACCGGAAUUCAGAUUGUCCCCGUAUGUUAAAUCCCGUCGUAGCCACCA
DNA 1: CAATCTGAATTCCGGTCTCCC
DNA 2: TGGTGGCTACGACGGGATT
B4: CCCCAGG (DNA:RNA)
RNA: B3 RNA with G27C, U28C, U30G
DNA 1: CAATCTGAATTCCGGTCTCCC
DNA 2: TGGTGGCTACGACGGGATT
B5: UUAUCCA (DNA:RNA)
RNA: B1 RNA with A25U, G26U, C27A, A28U
DNA 1: CAATCTGAATTCCGGTCTCCC
DNA 2: TGGTGGCTACGACGGGATT
B6: AACACCC (DNA:RNA)
RNA: B1 RNA with G26A, A31C
DNA 1: CAATCTGAATTCCGGTCTCCC
DNA 2: TGGTGGCTACGACGGGATT
B7: AUGACAA (DNA:RNA)
RNA: B1 RNA with G26U, C27G, C30A
DNA 1: CAATCTGAATTCCGGTCTCCC
DNA 2: TGGTGGCTACGACGGGATT
B8: CGCACAC (DNA:RNA)
RNA: B1 RNA with A25C, C30A, A31C
DNA 1: CAATCTGAATTCCGGTCTCCC
DNA 2: TGGTGGCTACGACGGGATT
B9: GAAGGCU (DNA:RNA)
RNA: B1 RNA with A25G, G26A, C27A, A28G, C29G, A31U
DNA 1: CAATCTGAATTCCGGTCTCCC
DNA 2: TGGTGGCTACGACGGGATT
B10: CAAAGUC (DNA:RNA)
RNA: B3 RNA with C26A, G27A, U28A, A29G, G31C
DNA 1: CAATCTGAATTCCGGTCTCCC
DNA 2: TGGTGGCTACGACGGGATT
B11: CCUGAUU (DNA:RNA)
RNA: B3 RNA with G27U, U28G, G31U
DNA 1: CAATCTGAATTCCGGTCTCCC
DNA 2: TGGTGGCTACGACGGGATT
B12: GAGGCCU (DNA:RNA)
RNA: B1 RNA with A25G, G26A, C27G, A28G, A31U
DNA 1: CAATCTGAATTCCGGTCTCCC
DNA 2: TGGTGGCTACGACGGGATT
B13: AGGAUAC (DNA:RNA)
RNA: B1 RNA with C27G, C29U, C30A, A31C
DNA 1: CAATCTGAATTCCGGTCTCCC
DNA 2: TGGTGGCTACGACGGGATT
B14: CGUUAUG (DNA:RNA)
RNA: B3 RNA with C26G, G27U
DNA 1: CAATCTGAATTCCGGTCTCCC
DNA 2: TGGTGGCTACGACGGGATT
B15: UCUCAGG (DNA:RNA)
RNA: B3 RNA with C25U, G27U, U28C, U30G
DNA 1: CAATCTGAATTCCGGTCTCCC
DNA 2: TGGTGGCTACGACGGGATT
B16: GAUACAG (DNA:RNA)
RNA: B1 RNA with A25G, G26A, C27U, C30A, A31G
DNA 1: CAATCTGAATTCCGGTCTCCC
DNA 2: TGGTGGCTACGACGGGATT
B17: AGUAUCG (DNA:RNA)
RNA: B1 RNA with C27U, C29U, A31G
DNA 1: CAATCTGAATTCCGGTCTCCC
DNA 2: TGGTGGCTACGACGGGATT
B18: CAGGAGG (DNA:RNA)
RNA: B3 RNA with C26A, U28G, U30G
DNA 1: CAATCTGAATTCCGGTCTCCC
DNA 2: TGGTGGCTACGACGGGATT
B19: GGUAUGA (DNA:RNA)
RNA: B1 RNA with A25G, C27U, C29U, C30G
DNA 1: CAATCTGAATTCCGGTCTCCC
DNA 2: TGGTGGCTACGACGGGATT
B20: GUCCAAA (DNA:RNA)
RNA: B1 RNA with A25G, G26U, A28C, C29A, C30A
DNA 1: CAATCTGAATTCCGGTCTCCC
DNA 2: TGGTGGCTACGACGGGATT
B21: CGUCUAU (DNA:RNA)
RNA: B1 RNA with A25C, C27U, A28C, C29U, C30A, A31U
DNA 1: CAATCTGAATTCCGGTCTCCC
DNA 2: TGGTGGCTACGACGGGATT
B22: CCGUCCG (DNA:RNA)
RNA: B3 RNA with A29C, U30C
DNA 1: CAATCTGAATTCCGGTCTCCC
DNA 2: TGGTGGCTACGACGGGATT
B23: UAUGUUA (DNA:RNA)
RNA: B1 RNA with A25U, G26A, C27U, A28G, C29U, C30U
DNA 1: CAATCTGAATTCCGGTCTCCC
DNA 2: TGGTGGCTACGACGGGATT
B24: CUGUUCU (DNA:RNA)
RNA: B3 RNA with C26U, A29U, U30C, G31U
DNA 1: CAATCTGAATTCCGGTCTCCC
DNA 2: TGGTGGCTACGACGGGATT
B25: UCGCGCC (DNA:RNA)
RNA: B3 RNA with C25U, U28C, A29G, U30C, G31C
DNA 1: CAATCTGAATTCCGGTCTCCC
DNA 2: TGGTGGCTACGACGGGATT
B26: GGACGUA (DNA:RNA)
RNA: B1 RNA with A25G, C27A, A28C, C29G, C30U
DNA 1: CAATCTGAATTCCGGTCTCCC
DNA 2: TGGTGGCTACGACGGGATT
B27: AUAAAAG (DNA:RNA)
RNA: B1 RNA with G26U, C27A, C29A, C30A, A31G
DNA 1: CAATCTGAATTCCGGTCTCCC
DNA 2: TGGTGGCTACGACGGGATT
B28: AAACUUA (DNA:RNA)
RNA: B1 RNA with G26A, C27A, A28C, C29U, C30U
DNA 1: CAATCTGAATTCCGGTCTCCC
DNA 2: TGGTGGCTACGACGGGATT
B29: UAAGAAA (DNA:RNA)
RNA: B1 RNA with A25U, G26A, C27A, A28G, C29A, C30A
DNA 1: CAATCTGAATTCCGGTCTCCC
DNA 2: TGGTGGCTACGACGGGATT
B30: CCGCCGA (DNA:RNA)
RNA: B3 RNA with U28C, A29C, U30G, G31A
DNA 1: CAATCTGAATTCCGGTCTCCC
DNA 2: TGGTGGCTACGACGGGATT
B31: GGAGAAA (DNA:RNA)
RNA: B1 RNA with A25G, C27A, A28G, C29A, C30A
DNA 1: CAATCTGAATTCCGGTCTCCC
DNA 2: TGGTGGCTACGACGGGATT

Positions count from the first letter of the chain named. Some of the results follow.

The target in the experiment is T1, RBFOX1 RRM. The experiment is described as follows: EMSA; HiTS-Eq, 1 nM pool, 10 min; buffer printed only for the single-RNA assays: 10 mM Tris pH 7.5, 150 mM NaCl, 3.4 mM EDTA, 0.001% NP-40, 30 C. To be noted: tags: His6 N-terminal (pET28a); label: 5' 32P. In short, it runs like this:
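Relative association constants, normalised to the cognate motif, were derived by comparing read counts of each RNA species with those of the control reaction. The RNA sequenced was the free fraction, separated by 8% native PAGE after a 10 min equilibration in 50 µL of 1 nM 5′-radiolabelled RNA (7 randomized nucleotides) with increasing concentrations of purified wild-type or mutant RbFox RRM.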
In general terms: A gel shift assay detects complexes by their altered migration in electrophoresis.
B1: the binding signal is 0.00327 KA relative to UGCAUGU.

As to B2, the binding signal is 0.024 KA relative to UGCAUGU.

With B3, the binding signal was 0.0111 KA relative to UGCAUGU.

For B4, the binding signal was 0.0182 KA relative to UGCAUGU.

In the case of B5, the binding signal was 0.000975 KA relative to UGCAUGU.

With B6, the binding signal is 0.000265 KA relative to UGCAUGU.

As for B7, the binding signal was 0.00688 KA relative to UGCAUGU.

Consider B8, for which the binding signal was 0.00709 KA relative to UGCAUGU.

With B9, the binding signal was 0.0147 KA relative to UGCAUGU.

With B10, the binding signal is 0.00345 KA relative to UGCAUGU.

B11: the binding signal is 0.00913 KA relative to UGCAUGU.

As to B12, the binding signal was 0.0209 KA relative to UGCAUGU.

With B13, the binding signal was 0.0128 KA relative to UGCAUGU.

For the molecule B14, the binding signal is 0.013 KA relative to UGCAUGU.

As for B15, the binding signal is 0.00927 KA relative to UGCAUGU.

As for B16, the binding signal was 0.00873 KA relative to UGCAUGU.

For the molecule B17, the binding signal was 0.00649 KA relative to UGCAUGU.

As for B18, the binding signal is 0.00882 KA relative to UGCAUGU.

As for B19, the binding signal was 0.0175 KA relative to UGCAUGU.

As to B20, the binding signal was 0.00397 KA relative to UGCAUGU.

On to B21, for which the binding signal is 0.00694 KA relative to UGCAUGU.

Consider B22, for which the binding signal was 0.0174 KA relative to UGCAUGU.

In the case of B23, the binding signal was 0.0151 KA relative to UGCAUGU.

For B24, the binding signal is 0.0159 KA relative to UGCAUGU.

B25: the binding signal was 0.0112 KA relative to UGCAUGU.

Regarding B26, the binding signal was 0.0149 KA relative to UGCAUGU.

Consider B27, for which the binding signal is 0.00169 KA relative to UGCAUGU.

Regarding B28, the binding signal was 0.00313 KA relative to UGCAUGU.

Take B29: the binding signal was 0.00895 KA relative to UGCAUGU.

On to B30, for which the binding signal was 0.0089 KA relative to UGCAUGU.

For B31, the binding signal was 0.0138 KA relative to UGCAUGU.

These data come from article PMC9911399, “Two distinct binding modes provide the RNA-binding protein RbFox with extraordinary sequence specificity”.
